Hit rate of the full screen: of about 150,000 compounds, about 540 (0.36%) showed an effect of 50% or more. This is one part of the list.
Each compound was assayed on Plasmodium falciparum (assay: Primary screen in NF54 nanoGlo assay, in single point, at 2uM, 72h; a lower Z score goes with more inhibition). Settings: timepoint 72 hour.
Format: functional, Erythrocyte

Question: How did the “% Inhibition” value turn out when `CCCN1C(=O)C2(CCCCC2)NC12CCN(S(C)(=O)=O)CC2` was run?
Answer: 8%

Question: And the Z score?
Answer: -0.84

Question: Which results are given for `Cc1n[nH]cc1-c1nccnc1N1CCCC1`?
Answer: % Inhibition: -9%; Z score: 1.22

Question: What does the source list for `CCCCNC(=O)N(Cc1c(C)nn(-c2cccc(F)c2)c1N1CCN(CC)CC1)[C@@H](C)CC`?
Answer: % Inhibition: 11%; Z score: -1.39

Question: With `Cn1ncnc1COc1ccc(S(=O)(=O)NCc2ccoc2)cc1` as the compound, how does the “% Inhibition” value read?
Answer: -6%

Question: And the Z score?
Answer: 0.81

Question: What does the source list for `COCCn1cc(CCNC(=O)Nc2cc(C)cc(C)c2)c2cccnc21`?
Answer: % Inhibition: -2%; Z score: 0.21

Question: What does the source list for `O=C(NCCCn1cccn1)c1cn(C[C@H](O)c2ccccc2F)nn1`?
Answer: % Inhibition: -8%; Z score: 1.46

Question: How did the “% Inhibition” value turn out when `CC[C@@](NC(=O)c1ccon1)(C(N)=O)C(C)C` was run?
Answer: 3%

Question: And the Z score?
Answer: -0.29

Question: For `Cc1nc(N2CC[C@]3(CCN(Cc4ccccc4)C3)C2)cc2nncn12`, which “% Inhibition” value is on record?
Answer: 21%

Question: What about the Z score of the same compound?
Answer: -2.67

Question: With `Cc1cc(Cn2ccc(C(C)(C)C)n2)no1` as the compound, how does the “% Inhibition” value read?
Answer: -7%

Question: What about the Z score of the same compound?
Answer: 0.79

Question: For `c1ccc(C(NCc2cnc(-c3ccco3)s2)C2CCCO2)cc1` (stereo not drawn), which “% Inhibition” value is on record?
Answer: -16%

Question: What about the Z score of the same compound?
Answer: 1.34

Question: What does the source list for `CCC(CC)(C(=O)N[C@H]1CC[C@@H](CO)CC1)C(=O)OC(C)(C)C`?
Answer: % Inhibition: -2%; Z score: 0.35

Question: Which results are given for `Clc1ccc(CN(Cc2cccnc2)Cc2ccccn2)cc1Cl`?
Answer: % Inhibition: -3%; Z score: 0.36

Question: Which “% Inhibition” value does the source give for `CNS(=O)(=O)c1ccc([C@@H]2C[C@H](NC(C)=O)C[C@H](CC(C)C)O2)cc1` here?
Answer: -1%

Question: What about the Z score of the same compound?
Answer: 0.16

Question: How did the “% Inhibition” value turn out when `C=CCN=C(NCCc1nccn1C(F)F)NCc1ccco1` was run?
Answer: 0%

Question: And the Z score?
Answer: -0.03

Question: Which “% Inhibition” value does the source give for `NS(=O)(=O)Cc1cccc(F)c1F` here?
Answer: -17%

Question: And the Z score?
Answer: 2.49

Question: With `CCc1cnc(NCC(C)(C)N2CCCCC2)nc1` as the compound, how does the “% Inhibition” value read?
Answer: 11%

Question: What about the Z score of the same compound?
Answer: -1.58

Question: Which results are given for `CC(C)c1nc(CN(C)c2nc(N)nc3c2CCNCC3)cs1`?
Answer: % Inhibition: 1%; Z score: -0.22

Question: Which results are given for `O=C(NCc1ccccc1Cl)c1c[nH]c(=O)n(Cc2ccccc2F)c1=O`?
Answer: % Inhibition: -3%; Z score: 0.5

Question: With `O=C(COc1ccc(-c2ccccc2)cc1)NCc1cccs1` as the compound, how does the “% Inhibition” value read?
Answer: -9%

Question: And the Z score?
Answer: 0.95

Question: With `COc1c[nH]c(C(=O)Nc2ccc(-c3nc[nH]n3)cc2)cc1=O` as the compound, how does the “% Inhibition” value read?
Answer: -7%

Question: And the Z score?
Answer: 0.9

Question: What does the source list for `COc1cc(Cl)ccc1-c1nnc(N2CC[C@H](OC)C2)n1C`?
Answer: % Inhibition: -5%; Z score: 0.76

Question: Which results are given for `C[C@H](NC(N)=O)c1noc(Cc2ccc3c(c2)CCCO3)n1`?
Answer: % Inhibition: -9%; Z score: 1.65

Question: What does the source list for `CC1(C)C[S+]([O-])CCN1C(=O)CC1CCCCO1` (stereo not drawn)?
Answer: % Inhibition: -8%; Z score: 0.89

Question: For `CCc1nnc(CC2CCN(C(=O)c3ccc4ccccc4n3)CC2)[nH]1`, which “% Inhibition” value is on record?
Answer: -12%

Question: What about the Z score of the same compound?
Answer: 1.76

Question: What does the source list for `CCC1CCC(CNC(=O)NC2C3CCOC3C2(C)C)CC1` (stereo not drawn)?
Answer: % Inhibition: -2%; Z score: 0.17

Question: With `C[C@H]1CCc2c(c(-c3cccnc3)nc3c(-c4ccc(Cl)cc4)cnn23)C1` as the compound, how does the “% Inhibition” value read?
Answer: 4%

Question: What about the Z score of the same compound?
Answer: -0.42

Question: `Cc1cc(C)c2sc(N3CCN(C(=O)c4cnc5ccccc5n4)CC3)nc2c1` was tested. Which “% Inhibition” value did it give?
Answer: -4%

Question: What about the Z score of the same compound?
Answer: 0.72

Question: For `O=S(=O)(NCc1cccs1)c1ccc(-c2cc(C(F)(F)F)n[nH]2)s1`, which “% Inhibition” value is on record?
Answer: -6%

Question: And the Z score?
Answer: 1.13

Question: Which results are given for `CC1(C)CC(NC(=O)N2CCCCC2c2cc[nH]n2)c2ccccc2O1` (stereo not drawn)?
Answer: % Inhibition: -3%; Z score: 0.56

Question: What does the source list for `Cc1nsc(N2CCC(C(F)(F)F)CC2)n1`?
Answer: % Inhibition: -4%; Z score: 0.7

Question: Which “% Inhibition” value does the source give for `O=C1NC2(CCC2)C(=O)N1CCn1cc(Br)cn1` here?
Answer: -4%

Question: And the Z score?
Answer: 0.52

Question: Which “% Inhibition” value does the source give for `Cn1cc(-c2ccc(NC3CCCC3)nn2)cn1` here?
Answer: -21%

Question: What about the Z score of the same compound?
Answer: 1.96

Question: Which “% Inhibition” value does the source give for `COc1ccc(CCNC(=O)CCc2ccc(-c3ccc(Cl)cc3)n2-c2ccc(OC)cc2)cc1` here?
Answer: -3%

Question: What about the Z score of the same compound?
Answer: 0.44

Question: `CCOc1cccc(-n2cc(-c3ccccc3)nc2NC(=O)CN(C(C)C)S(=O)(=O)c2ccc(C)cc2)c1` was tested. Which “% Inhibition” value did it give?
Answer: -11%

Question: What about the Z score of the same compound?
Answer: 1.6

Question: `CCc1cccc(OCCN(CC)C(=O)c2cnc(C)nc2O)c1` was tested. Which “% Inhibition” value did it give?
Answer: -6%

Question: What about the Z score of the same compound?
Answer: 0.59

Question: `Cc1cc(C)c(C#N)c(N2CC[C@@]3(CCCN(CC4CC4)C3=O)C2)n1` was tested. Which “% Inhibition” value did it give?
Answer: 2%

Question: What about the Z score of the same compound?
Answer: -0.37

Question: Which “% Inhibition” value does the source give for `COc1ccc(Cc2n[nH]c(CCn3c(C)cccc3=O)n2)cc1` here?
Answer: -11%

Question: What about the Z score of the same compound?
Answer: 1.98

Question: Which results are given for `C[C@]1(NC(=O)c2ccc(-c3cscn3)cc2)CCS(=O)(=O)C1`?
Answer: % Inhibition: -2%; Z score: 0.21

Question: For `C=C(C)C1OCCC1CNC(=O)NC1c2cccc(F)c2CCC1C` (stereo not drawn), which “% Inhibition” value is on record?
Answer: 1%

Question: And the Z score?
Answer: -0.16

Question: Which “% Inhibition” value does the source give for `O=C(NC1(C(=O)O)CCCCC1)c1cnc2ccccc2n1` here?
Answer: -10%

Question: And the Z score?
Answer: 1.26

Question: With `Cc1ccc(S(=O)(=O)N(CC(=O)N2CCc3sccc3[C@@H]2COc2ccc(Cl)c(C)c2)CC2CC2)cc1` as the compound, how does the “% Inhibition” value read?
Answer: -21%

Question: What about the Z score of the same compound?
Answer: 2

Question: How did the “% Inhibition” value turn out when `CCOC(=O)N1CCN(C(=O)c2ccc(NCc3ccc(F)cc3)c(S(=O)(=O)Nc3cccc(OC)c3)c2)CC1` was run?
Answer: 0%

Question: And the Z score?
Answer: 0.03

Question: What does the source list for `O=C(Cn1cnc2ccccc2c1=O)Nc1nc(CCC2CCCC2)n[nH]1`?
Answer: % Inhibition: -5%; Z score: 0.49

Question: With `CCCN(CCO)C(=O)Nc1ccc(OC)c(C(=O)NC)c1` as the compound, how does the “% Inhibition” value read?
Answer: -3%

Question: What about the Z score of the same compound?
Answer: 0.36

Question: Which results are given for `CC(NC(=O)C1CCCC(C(=O)O)C1)c1ccco1` (stereo not drawn)?
Answer: % Inhibition: -12%; Z score: 1.53

Question: Which results are given for `CC1(C)C2CCC1(CS(=O)(=O)O)C(=O)C2.CCC(C)(c1ccccc1)C1CNc2ccccc21` (stereo not drawn)?
Answer: % Inhibition: -17%; Z score: 2.69

Question: What does the source list for `COc1ccc(C(=O)N2CCCN(c3nc4c(s3)c(C)nn4-c3cccc(C)c3)CC2)c(OC)c1`?
Answer: % Inhibition: 5%; Z score: -0.84

Question: Which results are given for `Cc1ccc2ncc(-c3ncccc3C(=O)N3CCCC3)cc2c1`?
Answer: % Inhibition: -6%; Z score: 1.18

Question: For `Cn1cc([C@H]2CCN(CC3CCC4(CC3)OCCO4)C2)cn1`, which “% Inhibition” value is on record?
Answer: 5%

Question: What about the Z score of the same compound?
Answer: -0.8

Question: Which “% Inhibition” value does the source give for `Cn1ccc(CNCc2c(Br)cc(F)c(F)c2N2CCCCC2)n1` here?
Answer: 4%

Question: What about the Z score of the same compound?
Answer: -0.75

Question: Which results are given for `CC(C)CN1CCN(Cc2ccn(CC(F)(F)F)n2)CC1=O`?
Answer: % Inhibition: -8%; Z score: 1.13

Question: How did the “% Inhibition” value turn out when `CNC(=O)NC(=O)CNc1cc(-c2ccc(C#N)s2)ccc1C` was run?
Answer: 16%

Question: And the Z score?
Answer: -2.41

Question: For `CC(NC(=O)N1CC2C3CCC(O3)C2C1)c1cccc(Cl)c1` (stereo not drawn), which “% Inhibition” value is on record?
Answer: 5%

Question: And the Z score?
Answer: -0.54

Question: Which results are given for `O=S(=O)(c1ccc2c(c1)OCCO2)N1CC[C@H](Oc2cnc3ccccc3n2)C1`?
Answer: % Inhibition: -7%; Z score: 0.99

Reference: ChEMBL document CHEMBL4888484, “Replenishing the malaria drug discovery pipeline: Screening and hit evaluation of the MMV Hit Generation Library 1 (HGL1) against asexual blood stage Plasmodium falciparum ,using a nano luciferase reporter read-out” (2022)
